Experimental data from PubChem BioAssay AID485281 (National Center for Advancing Translational Sciences (NCATS), 2010).
Out of some 350,000 compounds screened, about 260 (0.074%) were called active. Inconclusive results, whose numbers are uncertain, are shown with a selection of clear calls. The call rests on the fitted dose curve; in most records, active means well fitted inhibition curve with a large enough effect; inconclusive means small, poorly fitted or top-dose-only effect; inactive means no such curve, though single readings can be large or run the other way. A potency beside an inconclusive call is a rough fit, not a confirmed value.

Target: Ferritin light chain (Equus caballus) (UniProt P02791)
Chain of UniProt P02791 (P02791 whole entry, looked up): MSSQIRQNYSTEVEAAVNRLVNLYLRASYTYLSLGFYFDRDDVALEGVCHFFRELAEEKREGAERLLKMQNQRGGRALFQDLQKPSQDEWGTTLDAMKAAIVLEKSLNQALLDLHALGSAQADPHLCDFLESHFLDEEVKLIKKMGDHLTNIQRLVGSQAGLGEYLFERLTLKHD
Experiment: qHTS Assay for Identification of Novel General Anesthetics; further: nearly all actives have a fitted effect of over 20% in size
Settings: apoferritin/1-aminoanthracene competitive binding, fluorescence; activity change, negative = displacement: at 77.5 µM (top of the series)
Outline: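 In PBS, apoferritin at 10 uM is loaded with 1-AMA from a 50% saturated solution. After 10 min of compound exposure at ambient temperature, reduced 535 nm fluorescence indicates probe displacement.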
On the % scale 0 is the no-effect control and ±100 the full control effect; potency means the concentration at half of the fitted maximal effect; tags describe the fitted curve by direction and shape.

SMILES | Potency | activity change, negative = displacement
CC(C)CN(CC(C)C)C(=O)CC(=O)NC(=O)c1ccc(Cl)cc1 | inconclusive: 35.5 µM [inhibitor, partial curve] | 
O=C(OCc1ccc(-c2ccccc2)cc1)c1cccc(O)c1 | inconclusive: 14.1 µM [inhibitor, partial curve] | 
COc1ccc(NC(=O)Nc2cccs2)cc1Cl |  | inactive: -9.76%
CCOC(=O)C1(CCOc2ccccc2)CCN(Cc2cccs2)CC1 |  | inactive: -15.2%
COCc1nnc(NC(=O)c2ccc(S(=O)(=O)N3CCCCCC3)cc2)o1 |  | inactive: -13.5%
COc1ccc(-n2nnnc2SCC(=O)N2C(C)CCCC2C)c(OC)c1 (stereo not drawn) | inconclusive: 22.4 µM [inhibitor, partial curve] | 
COC(=O)c1ccc(C(=O)OC)c(NC(=O)COC(=O)C23CC4CC(CC(O)(C4)C2)C3)c1 | inconclusive: 35.5 µM [inhibitor, partial curve] | 
COc1ccc(CSc2nnc(N)s2)cc1F | inconclusive: 28.2 µM [inhibitor, partial curve] | 
Cc1ncc([N+](=O)[O-])n1Cc1cccc2ccccc12 | inconclusive: 28.2 µM [inhibitor, single point] | 
c1ccc(COc2ccc(OCCCCN3CCCCC3)cc2)cc1 | inconclusive: 39.8 µM [inhibitor, partial curve] | 
Cc1ccc(S(=O)(=O)c2cnc(SCC(=O)Nc3cc(C)cc(C)c3)nc2N)cc1 |  | inactive: -7.88%
C/C(N)=C(/C#N)C(=O)COC(=O)CSc1ccc2ccccc2c1 | inconclusive: 28.2 µM [inhibitor, partial curve] | 
Cc1cccc(OCc2ccc(-c3nc(C#N)c(NCCN(C)C)o3)o2)c1 | inconclusive: 22.4 µM [inhibitor, partial curve] | 
C=C(C)Cn1cnc2c(oc3nc4c(cc32)CCCC4)c1=O |  | inactive: -6.07%
Clc1ccc2oc(-c3ccccn3)nc2c1 |  | inactive: -4.63%
CCN(CC)c1ccc(NC(=O)CSc2nnc(C)c(=O)[nH]2)cc1 |  | inactive: 88.7%
O=C(Nc1cc(Cl)cc(Cl)c1)c1ccc(F)c(S(=O)(=O)NC2CCCC2)c1 |  | inactive: -5.49%
O=C1C2CCCCC2C(=O)N1Cc1ccccc1 (stereo not drawn) | inconclusive: 10 µM [inhibitor, partial curve] | 
CCCCN1C(=O)Cc2c1nc(N)c1c(N)nc(N(CCC)CCC)c(C#N)c21 | inconclusive: 35.5 µM [inhibitor, partial curve] | 
N#Cc1c(-c2ccccc2)nc2n(-c3ccccc3)nc(C(=O)Nc3ccccc3)n2c1=O | inconclusive: 50.1 µM [inhibitor, partial curve, poor fit] | 
CC1CCCN(S(=O)(=O)c2ccccc2[N+](=O)[O-])C1 (stereo not drawn) | inconclusive: 56.2 µM [inhibitor, single point] | 
Cc1ccc(-n2c(C)nnc2SCC(=O)N2CCc3ccccc3C2)cc1C | inconclusive: 15.8 µM [inhibitor, partial curve] | 
S=c1nc(C2COc3ccccc3O2)[nH][nH]1 (stereo not drawn) | inconclusive: 35.5 µM [inhibitor, single point] | 

SMILES | Potency | activity change, negative = displacement
CCOC(=O)c1cc2occc2n1CC(=O)N1CCCc2ccccc21 | inconclusive: 35.5 µM [inhibitor, partial curve] | 
O=C(Cc1cccs1)Nc1cccc(-c2nc3cc4ccccc4cc3[nH]2)c1 |  | inactive: 64.7%
CC1CCCCC1NC(=O)COC(=O)COc1ccccc1Cl (stereo not drawn) | inconclusive: 11.2 µM [inhibitor, partial curve] | 
CCN(CC)CCN(Cc1cc2cc3c(cc2[nH]c1=O)OCCO3)C(=O)NC1CCCCC1 |  | inactive: 1.43%
COc1ccc(CN2C(=O)NC3(CCCCCC3)C2=O)cc1F | inconclusive: 39.8 µM [inhibitor, single point] | 
CCn1c(SCC(=O)c2ccc(C)cc2)nnc1-c1ccncc1 | inconclusive: 31.6 µM [inhibitor, single point] | 
CCCCN(CC)CCNC(=O)c1cc2c(-c3ccc(Cl)cc3)nn(C)c2s1 | inconclusive: 7.94 µM [inhibitor, partial curve] | 
COc1ccccc1/C=N/NC(=O)CSc1ccc2ccccc2n1 | inconclusive: 50.1 µM [inhibitor, single point] | 
Nc1ncnc2nc(SCc3ccc(Cl)cc3Cl)[nH]c12 | inconclusive: 35.5 µM [inhibitor, partial curve] | 
c1cncc(CNc2ncncc2-c2ccc3c(c2)OCO3)c1 |  | inactive: 3.05%
Cc1cc(-c2csc(NC(=O)c3ccc(=O)n(C)n3)n2)c(C)n1CC1CCCO1 (stereo not drawn) | inconclusive: 25.1 µM [inhibitor, partial curve] | 
COc1cc2c(c3oc(-c4ccccc4)cc(=O)c13)C=CC(C)(C)O2 | inconclusive: 15.8 µM [inhibitor, partial curve] | 
OCC1CCCCN1C(=S)Nc1ccc(Cl)cc1Cl (stereo not drawn) | inconclusive: 31.6 µM [inhibitor, partial curve] | 
CCOc1cc(Br)cc(/C=C2\SC(=Nc3ccccc3)NC2=O)c1O | inconclusive: 22.4 µM [inhibitor, partial curve] | 
COc1cc(/C=C(\C#N)c2nc3ccc(C)cc3[nH]2)cc([N+](=O)[O-])c1O | inconclusive: 31.6 µM [inhibitor, partial curve] | 
CCN(CC)c1ccc(NC(=O)c2cnn(CC)c2)cc1 | inconclusive: 20 µM [inhibitor, partial curve] | 
Cc1cc([N+](=O)[O-])c(-c2ccc(/C=N/n3cnnc3)o2)cc1Cl | inconclusive: 28.2 µM [inhibitor, partial curve] | 
Cc1cc(C)n2nc(-c3cccc(Br)c3)cc2n1 | inconclusive: 35.5 µM [inhibitor, single point] | 
COc1ccc(N2CC(O)=C(c3nc4ccccc4s3)C2=N)cc1 |  | inactive: -2.74%
Cc1cccc(N2CC(C(=O)Nc3nnc(SCCN4CCOCC4)s3)CC2=O)c1 (stereo not drawn) | inconclusive: 31.6 µM [inhibitor, single point] | 
O=C(c1ccccc1)c1ccc2c(c1)OCCOCCOCCO2 |  | inactive: 5.97%
Cc1ccc(-n2ccnc(NCc3ccccc3)c2=O)cc1C | inconclusive: 31.6 µM [inhibitor, partial curve] | 
CC1(C)C2CCC1(C)C(OC(=O)c1ccc(O)cc1)C2 (stereo not drawn) | inconclusive: 12.6 µM [inhibitor, partial curve] | 

SMILES | Potency | activity change, negative = displacement
Cc1ccc(/C=N/NC(=O)CCCOc2ccc(Cl)cc2Cl)cc1[N+](=O)[O-] | inconclusive: 3.55 µM [inhibitor, full curve, poor fit] | 
O=C(NN=C(Cc1ccccc1)Cc1ccccc1)c1ccccc1O | inconclusive: 8.91 µM [inhibitor, partial curve] | 
Cc1ccc(C(=O)NCCc2nnc3ccc(SCC(=O)N4CCCCC4)nn23)cc1 | inconclusive: 15.8 µM [inhibitor, partial curve] | 
CCOc1ccc(/C=N/NC(=O)c2cc(-c3cccn3C)n[nH]2)cc1 | inconclusive: 20 µM [inhibitor, partial curve] | 
COc1ccc(-c2[nH]ncc2CN2CCN(Cc3cccs3)CC2)cc1F |  | inactive: -7.51%
Cc1ccc(OCC(=O)Nc2ccc(S(=O)(=O)N3CCCC3)cc2)cc1 | inconclusive: 39.8 µM [inhibitor, single point] | 
COc1ccc(OCC(=O)N/N=C2\CCCCc3ccccc32)cc1 | inconclusive: 15.8 µM [inhibitor, partial curve] | 
Cc1nnc(C)n1/N=C/c1ccc(C(=O)O)cc1 | inconclusive: 28.2 µM [inhibitor, partial curve] | 
CC(Sc1nnc(-c2ccc(O)cc2)o1)C(=O)Nc1cccc2ccccc12 (stereo not drawn) | inconclusive: 25.1 µM [inhibitor, partial curve, poor fit] | 
CC1C[C@@]2(NC(=O)NC2=O)C(C)CN1C (stereo partly drawn) |  | inactive: -4.76%
Cc1ccc(C2/C(=C(/O)c3ccc(OC(C)C)cc3)C(=O)C(=O)N2CCN2CCOCC2)cc1 (stereo not drawn) | inconclusive: 28.2 µM [inhibitor, single point] | 
CC(C)CC1NC(=O)N(CC(=O)c2ccc3c(c2)OCCO3)C1=O (stereo not drawn) | inconclusive: 35.5 µM [inhibitor, partial curve] | 
CCCCC(CC)COC(=O)CC(C(=O)OCC(CC)CCCC)S(=O)(=O)O (stereo not drawn) | inconclusive: 28.2 µM [inhibitor, partial curve] | 
Oc1c(Cl)cc(Cl)cc1CNc1ccc(Br)cn1 | inconclusive: 15.8 µM [inhibitor, partial curve] | 
C(=Nc1ccc(Nc2ccccc2)cc1)c1ccc2ccccc2c1 | inconclusive: 25.1 µM [inhibitor, partial curve, poor fit] | 
O=C(COC(=O)CCCSc1nc2ccccc2[nH]1)Nc1ccc(Cl)cc1 | inconclusive: 56.2 µM [inhibitor, single point] | 
CCOC(=O)c1ccc(NC(=O)N2CCCCCC2)cc1 | inconclusive: 20 µM [inhibitor, partial curve] | 
Cc1c(Cl)cccc1NC(CC(=O)c1ccccc1)C(=O)O (stereo not drawn) |  | inactive: -1.89%
NC(=O)CC(NC(=O)c1ccccc1)c1ccc(N2CCc3ccccc3C2)c([N+](=O)[O-])c1 (stereo not drawn) | inconclusive: 39.8 µM [inhibitor, partial curve] | 
CCN(CC)S(=O)(=O)c1ccc(C(=O)Oc2coc(CSc3nc(C)cc(C)n3)cc2=O)cc1 | inconclusive: 31.6 µM [inhibitor, partial curve] | 
COc1ccc(-c2nnc(SCC(=O)Oc3c(C)cccc3C)o2)cc1OC | inconclusive: 39.8 µM [inhibitor, single point] | 
Cc1oc(-c2cccc(Cl)c2)nc1CN1CCCC(C(=O)NCc2ccc(F)cc2)C1 (stereo not drawn) |  | inactive: -4.66%
